Laboratory results taken from PubChem BioAssay AID504937 (National Center for Advancing Translational Sciences (NCATS), 2011).
Out of some 340,000 compounds screened, about 20 (0.006%) were called active. This list was built around the results that the source calls inconclusive (neither active nor inactive); the mix of calls is not that of the screen. Calls follow the shape of the dose curve; as a rule, active = well fitted inhibition curve with a large enough effect; inconclusive = small, poorly fitted or top-dose-only effect; inactive = no such curve, though single readings can be large or run the other way. Where the call is inconclusive, the potency comes from a doubtful curve fit.

target: Sphingomyelin phosphodiesterase (Homo sapiens) (UniProt P17405); test: Inhibitors of Secretory Acid Sphingomyelinase (S-ASM): qHTS; conditions: placental ASM, HMU-PC fluorogenic substrate (series up to 57.5 µM), 60 min
Sequence of UniProt P17405 (P17405 whole entry, looked up): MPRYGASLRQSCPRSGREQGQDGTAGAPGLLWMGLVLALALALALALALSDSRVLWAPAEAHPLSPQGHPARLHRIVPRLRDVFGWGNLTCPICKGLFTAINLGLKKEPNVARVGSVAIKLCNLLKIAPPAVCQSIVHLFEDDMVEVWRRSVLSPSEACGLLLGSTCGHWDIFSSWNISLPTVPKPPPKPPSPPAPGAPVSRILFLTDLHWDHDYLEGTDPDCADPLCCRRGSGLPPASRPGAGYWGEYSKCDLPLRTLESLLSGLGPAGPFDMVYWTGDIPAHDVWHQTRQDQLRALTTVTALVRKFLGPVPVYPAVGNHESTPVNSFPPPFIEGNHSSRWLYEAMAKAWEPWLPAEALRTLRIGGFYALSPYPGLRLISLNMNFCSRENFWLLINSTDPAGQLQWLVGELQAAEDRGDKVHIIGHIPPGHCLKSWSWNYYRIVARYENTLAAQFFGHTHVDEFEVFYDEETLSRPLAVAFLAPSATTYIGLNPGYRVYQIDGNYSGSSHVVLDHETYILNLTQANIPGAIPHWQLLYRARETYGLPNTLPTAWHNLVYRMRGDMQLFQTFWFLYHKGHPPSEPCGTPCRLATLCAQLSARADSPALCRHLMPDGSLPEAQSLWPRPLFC
How it was run: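 Human placenta-derived ASM enzyme was preincubated with compound for 10 minutes at room temperature, then given fluorogenic substrate HMU-PC0 (9 uM final) for 60 minutes at 37 °C; a pH 10 stop preceded fluorescence reading at Ex 386/Em 447 nm.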
Potency is read from the fitted curve at half-maximal effect; tags tell the direction and shape of the fitted curve.

Compound | Potency
COc1ccccc1CNC(=O)c1ccc2c(=O)n(CCCN3CCCC3=O)c(=S)[nH]c2c1 | inactive
CCOC(=O)/C(C#N)=C/c1c(N2CCN(c3ccccc3)CC2)nc2ccccn2c1=O | inconclusive: 251 µM [inhibitor, partial curve, poor fit]
CCCCCCCCCCC[N+](C)(C)CC/C=C1/c2ccccc2Sc2ccc(Cl)cc21 | inconclusive: 63.1 µM [inhibitor, single point]
O=C(Nc1nc2ccccc2[nH]1)c1cccc(S(=O)(=O)N2CCOCC2)c1 | inactive
C[n+]1cc(C(=O)N2CCCCC2)ccc1/C=C/c1c[nH]c2ccccc12 | inconclusive: 89.1 µM [inhibitor, partial curve, poor fit]
COc1cc2c(cc1OC)C(=O)N1[C@H]3c4ccccc4OC[C@@H]3[C@H](c3ccccc3)[C@]1(C)C(=O)N2 | inactive
CC(C)(C)OC(=O)[C@H]1[C@H](c2ccc([N+](=O)[O-])cc2)C2(C(=O)c3ccccc3C2=O)C2c3ccccc3C=NN21 (some centres not stated) | inactive
O=C(C[C@H]1C[C@H](C(=O)N2CCCCC2)[C@@]2(CCc3ccccc3)c3[nH]c4cc(-c5ccco5)ccc4c3CCN2C1=O)NCCC1=CCCCC1 | inconclusive: 31.6 µM [inhibitor, partial curve, poor fit]
C=CCOc1ccc(C2C(C#N)=C(N)N(Nc3ccccc3)C3=C2C(=O)CCC3)cc1OC (configuration not stated) | inactive
Cc1ccc2c(c1)c(/C=C/c1cc[n+](C)cc1)c(C)n2C | inconclusive: 112 µM [inhibitor, partial curve, poor fit]
Cn1c(NCC(O)c2ccccc2)nc2c1c(=O)n(Cc1ccc(Cl)c(Cl)c1)c(=O)n2C (configuration not stated) | inconclusive: 79.4 µM [inhibitor, single point]
N#Cc1c2n(c3c(=O)n(Cc4ccc(Cl)cc4)cnc13)CCCCC2 | inconclusive: 224 µM [inhibitor, partial curve, poor fit]
O=C(Nc1ccccc1)c1nnsc1S(=O)c1ccc(Cl)cc1 (configuration not stated) | inconclusive: 126 µM [inhibitor, partial curve, poor fit]
Clc1ccc2ncc(-c3nnnn3-c3ccccc3)c(-c3ccccc3)c2c1 | inconclusive: 501 µM [inhibitor, partial curve, poor fit]
CCCCOc1ccc(CNC(=S)N/N=C/c2ccc(OC)c(OC)c2)cc1 | inconclusive: 63.1 µM [inhibitor, partial curve]
O=C1NN(c2ccccc2)C(=O)/C1=C/c1coc2ccccc2c1=O | inactive
Cn1cnnc1SCC(=O)Nc1sc2c(c1C(N)=O)CCC2 | inconclusive: 251 µM [inhibitor, partial curve, poor fit]
